Assay results from the supplement of paper PMC4604168 (melanoma cell lines).
Some of the results follow. Most values come without repeats; read them as rough.

tested on: SkMel30; assay: cell count relative to DMSO control; melanoma cells; higher = more viable cells; settings: library dose: standard library concentration; 72 h
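Further: cells treated in 1,536-well plates, then fixed and DAPI-stained, with nuclei counted from automated high-throughput microscope images.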

| Structure (SMILES) | cell count |
| --- | --- |
| Cn1cnc2c(F)c(Nc3ccc(Br)cc3Cl)c(C(=O)NOCCO)cc21 [selumetinib] + CCCCCCCCCCCC1=C(O)C(=O)C=C(O)C1=O [Embelin] (first compound 0.075 µM, partner dose 6 µM) | 52.2% |
| CCN(CC)CCNC(=O)c1c(C)[nH]c(/C=C2\C(=O)Nc3ccc(F)cc32)c1C [sunitinib] + O=C(O)C(=O)Nc1sc2c(c1C(=O)O)CCNC2 [TCS401] (first compound 2 µM, partner dose 8.33333 µM) | 83% |
| C[C@]1(O)C[C@@H](c2nc(-c3ccc4ccc(-c5ccccc5)nc4c3)c3c(N)nccn32)C1 + Oc1cc(-c2nc(-c3ccccc3)[nH]c2-c2ccncc2)ccc1Cl [L779450] (first compound 2 µM, partner dose 1 µM) | 82.7% |
| COc1cc([C@@H]2c3cc4c(cc3[C@@H](O[C@@H]3O[C@@H]5CO[C@@H](C)O[C@H]5[C@H](O)[C@H]3O)[C@H]3COC(=O)[C@H]23)OCO4)cc(OC)c1O [etoposide] + COC(=O)c1sccc1S(=O)(=O)Nc1ccc(Nc2ccccc2)cc1OC [GSK0660] (first compound 0.1 µM, partner dose 5 µM) | 77.8% |
